Results from PubChem BioAssay (NCI).
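Briefly, cells in 96-well plates were exposed to five compound concentrations for 48 h, and endpoints were estimated by linear interpolation. At the GI50, growth is halved. TGI: concentration producing complete growth inhibition.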

tested on: NCI-H322M lung; experiment: DTP human tumour cell line panel, 48 h

Row | SMILES | GI50 [µM] | TGI [µM]
1 | CC(=O)Oc1ccccc1C(=O)Nc1cc(C(C)C)ccc1C | 4.89 | 65.7
2 | c1n[nH]cc1-c1nc2ccc3[nH]ncc3c2c2c1CCCC2 | 1.41 | 7.12
3 | CC(=C(c1ccc(OCCN(C)C)cc1)c1ccc(OCCN(C)C)cc1)c1ccc(Cl)cc1 | 1.06 | 4.23
4 | CNC(=O)c1cc(N2CCc3cc(NC(=O)Nc4ccc(N5CCOCC5)c(C(F)(F)F)c4)ccc32)ccn1 | 2.91 | > 33.3
